# From ChEMBL document CHEMBL4888484, “Replenishing the malaria drug discovery pipeline: Screening and hit evaluation of the MMV Hit Generation Library 1 (HGL1) against asexual blood stage Plasmodium falciparum ,using a nano luciferase reporter read-out” (2022)
# Among all 150,000 compounds or so, about 540 (0.36%) showed an effect of 50% or more. The list shows a part of the results.
# Tested on: Plasmodium falciparum
# Experiment: Primary screen in NF54 nanoGlo assay, in single point, at 2uM, 72h; a lower Z score goes with more inhibition
# Format: functional, Erythrocyte
# Details: timepoint 72 hour
SMILES,% Inhibition,Z score
O=S1(=O)CCN(C[C@H](O)c2ccc(C(F)(F)F)cc2)CC1,-6%,1.21
O=C(N[C@@H]1[C@@H]2CCO[C@@H]2[C@H]1N1CCCC1)c1ccn(C(F)F)n1,4%,-0.78
COc1cccc([C@H]2C[C@H](N(C)C(=O)CCCC(F)(F)F)C2)c1,5%,-0.72
CN1CCN(C(=O)[C@@]2(C)CC2(Cl)Cl)CC1,-15%,1.33
Cc1cncc(NC(=O)[C@H]2C[C@@H]2C(F)F)c1,-15%,1.83
CCc1cc(CN(C)CC(=O)N[C@@H](C)c2ccc(C)cc2)on1,-7%,1.34
COc1ccccc1CN1C(=O)c2c3c(nn2C[C@@]1(C)C(=O)NCc1ccc(C)cc1)CCCC3,-6%,0.63
CC1(NS(=O)(=O)Cc2ccccc2)CCOC1C1CC1 (stereo not drawn),-10%,1.2
COc1ccc(-c2ncccc2C(=O)N2CCCC2)cc1C,-3%,0.45
O=S(=O)(Nc1ccncc1)c1ccc(Cl)c2ncccc12,-3%,0.56
CCCOCC(=O)NCc1cccc(C(=O)N(C)C)c1,4%,-0.87
Cc1nnc(-c2ccccc2-c2ccc(C(=O)O)s2)o1,-2%,0.33
CCc1ncc(C(=O)N2CCCCC2)c(-c2ccc(OC)cc2)n1,-13%,1.46
O=C(O)C1(Oc2ccc3ncccc3c2)CCN(CC2CCCCC2)CC1,0%,-0.01
N#Cc1ccc(C=Cc2coc(-c3ccccc3)n2)nc1,0%,-0.05
CC(=O)N1CCN(c2nc(N3CCOCC3)nc(-n3ccnc3)n2)CC1,4%,-0.79
Cc1n[nH]c(=O)nc1NC1CCCCCC1,-9%,1.27
CCN([C@@H](C)CS(C)(=O)=O)S(=O)(=O)c1cccnc1,-2%,0.32
c1cncc(CN[C@H]2CCCc3cn(C4CCCC4)nc32)c1,-4%,0.79
Cc1cc(CNc2ccn(CCO)n2)c2c(n1)CCCC2,-11%,1.14
COc1cc(CN2CC[C@H](NC(=O)c3ccc4[nH]c(=O)[nH]c4n3)C2)cc(OC)c1,-9%,1.31

SMILES,% Inhibition,Z score
Cc1ccc(Cc2ccccn2)cc1NC(=O)N1CCC[C@@H]1CCO,-4%,0.58
C#CCOC(=O)c1cn(CC(=O)N2CCCC2)nn1,-5%,0.64
Cc1nc(CCNC(=O)NC2CC2)cs1,-4%,0.67
CC(C)(Cc1ccccc1)C(=O)N1CCC2(CC1)C[C@H](O)CNC2=O,-5%,0.68
Cc1ccccc1[C@@H](O)C1CCN(C(=O)Cc2cnn(C)c2C)CC1,4%,-0.48
COCc1c(C(=O)NC2CCCCCC2)c(=O)cc(C)n1CCc1ccccc1Cl,-4%,0.44
CCc1cnc(CN2CCC[C@H]2c2noc(CC)n2)o1,-10%,1.41
CN(Cc1ccoc1)c1nc(C2CC2)nc2c1CCNCC2,11%,-1.49
COCC1(c2nc(C)nn2-c2ccc(F)cc2)CCC1,3%,-0.55
CC(C)(C#N)C(=O)NCc1ccc(OC(F)F)cc1OC(F)F,-6%,0.57
COc1ccc(OC)c(-c2csc(NC(=O)[C@H]3CCCN(C(=O)c4ccoc4)C3)n2)c1,6%,-0.79
CNC(=O)[C@@]1(C)CCN(S(=O)(=O)c2cccc3c2OC(F)(F)O3)C1,-9%,1.73
Cc1csc(CNC(=O)c2cccc(-c3cc(N4CCCC4)cnn3)c2)n1,4%,-0.67
Cc1cccc(N2C(=O)C3CN=NC3(C)C2=O)c1 (stereo not drawn),-11%,1.65
Cc1ccc(C)c(NC(=O)[C@H]2CC(=O)N(CCc3c[nH]c4ccc(F)cc34)C2)c1,1%,-0.26
Cc1cnc(NC(=O)CNC(=O)C(C)(C)C)s1,-2%,0.2
COC[C@H]1[C@@H](NC(=O)c2ccc(N(C)C)cc2)[C@H]2CCO[C@H]21,-15%,2.99
COc1ccc(C(=O)N2CCCCCNC(=O)[C@@H]3CCC[C@@H]32)cc1F,-18%,2.37
C[C@]1(NS(=O)(=O)c2ccc(Br)cc2F)CCOC1,-3%,0.56
Cc1nc(C)c(C(=O)N[C@@H](C)CC(=O)c2ccc(F)cc2)o1,6%,-0.74
CC[C@@H]1Oc2ccc(S(=O)(=O)N3CCN(C(=O)c4ccc(C)c(C)c4)CC3)cc2NC1=O,-1%,0.12

SMILES,% Inhibition,Z score
CN1CCCN(S(=O)(=O)c2cccnc2)c2ccc(F)cc21,-12%,2.2
COC(=O)c1ccc(C(=O)N2CCC[C@H](Oc3ccncc3)C2)cc1,15%,-2.11
Cc1nc(CCC(=O)Nc2ccc(NC(=O)NC(C)C)cc2)cs1,-12%,1.51
COC(CN(C)Cc1cccc(F)c1)OC,4%,-0.57
O=C(Nc1ccc2c(c1)OCCO2)C1CN(S(=O)(=O)C2CC2)C1,-12%,1.79
CC[C@@H](COC)NC(=O)Nc1snc(C)c1Cl,-5%,0.79
Cc1ccc(CN(C)C(=O)C2CC2c2ccc3c(c2)OCCO3)o1 (stereo not drawn),-10%,1.41
COc1ccccc1[C@H]1NC(=O)c2[nH]nc(C)c21,-3%,0.39
O=C(CN1CCCc2nc(-c3ccncc3)ncc2C1=O)NCc1ccccn1,1%,-0.14
Cc1ccc(-c2noc(CCNC(=O)c3ccccc3)n2)cc1,13%,-1.55
Cc1ccc(C)c(-n2nc(C)nc2CCCn2cncn2)c1,-16%,2.17
Cn1cc(C2=CCCN(S(=O)(=O)c3ccc4c(c3)CCO4)C2)cn1,-16%,2.09
Cc1ccc(S(=O)(=O)N2CC3(CCC3(F)F)C2)c(F)c1,-11%,1.37
CC(C)(C)c1cnc(CNc2cccc3c2OCCO3)o1,-16%,2.53
COC[C@H]1CCCN1[C@@H]1[C@H](O)[C@H](CO)O[C@@H]1CNC(=O)c1ccc(F)c(Cl)c1,9%,-1.04
CN(Cc1ccc2c(c1)OCO2)C(=O)c1cccnc1N(C)C,-5%,0.85
COc1cc(C)nc(N2CC(OC)(c3ccnn3C)C2)n1,6%,-1.1
Cn1nccc1CN(CCNC(=O)OC(C)(C)C)C[C@H](O)CO,-9%,1.17
Cc1cccc(NC(=O)N[C@@H](C)c2nnc(C(F)(F)F)[nH]2)n1,-3%,0.47
O=C(NCc1csc(=O)[nH]1)c1ccc2cc[nH]c2n1,-3%,0.65
CC(C)c1nccc(C(=O)NCc2nnc(N)s2)n1,5%,-0.42

SMILES,% Inhibition,Z score
C[C@@H](C(=O)NCc1ccc2c(c1)OCO2)N1CCn2ccnc2C1,-3%,0.63
COc1cc([C@H](C)NC2(C(C)C)CC2)ccc1S(C)(=O)=O,18%,-2.26
CCCN1CCC(N[C@H]2C[C@@H](C(=O)NCCc3ccc4c(c3)OCO4)N(Cc3cccc(Cl)c3)C2)CC1,2%,-0.32
CO[C@@]12CC[C@@H](O)C[C@@H]1N(C(=O)c1cn(C)c3ccc(C)cc3c1=O)CC2,-10%,1.84
CC[C@H]1CCCCN1C(=O)Cn1c(=O)n(CC2CCC(C(=O)NC3CCCC3)CC2)c(=O)c2ccccc21 (stereo partly drawn),-16%,2.53
Cc1nc(CCOC(=O)C[C@@H](CN)CC(C)C)cs1,-4%,0.76
N#Cc1ccc(N2CCCC(N3CCOC(c4cccc(O)c4)C3)C2=O)cc1 (stereo not drawn),-2%,0.38
Cc1ccc(C(=O)NCC2CCN(C(=O)c3[nH]cnc3C)CC2)cn1,-10%,1.41
COc1ccc(C[C@H](C)Nc2ccc3c(c2)CCC(=O)N3CC2CC2)cc1OC,-8%,0.98
CC(=O)N1CCC(CN2CCn3cc(C(=O)NCCc4cccnc4)nc3[C@H]2c2ccccc2)CC1,-7%,0.98
O=C(O)c1cnc(C=Cc2cnc(C3CCC3)s2)s1,-5%,0.5
COCC(=O)NCCCn1c(-c2ccc(C)cc2)nc2cccnc21,-1%,0.13
N#Cc1cccc(Oc2cncc(C(N)=O)c2)n1,-13%,1.89
CCOC(=O)CCC(=O)Nc1ccc(N2CCC(C(=O)OCC)CC2)c(S(=O)(=O)N[C@H]2CCCc3ccccc32)c1,9%,-1.22
CCc1ccccc1-c1noc(C2(C#N)CCCC2)n1,-11%,1.39
CN(C)C(=O)/C(=C/c1cccc(Oc2ccccc2)c1)NC(=O)c1ccccc1,-11%,1.42
Cc1c(C(=O)O[C@@H](C)c2cscn2)cnn1C(C)C,-1%,0.23
CN1CCC=C(CN(Cc2ccc3c(c2)OCO3)C(=O)N2CCCCC2)C1,-3%,0.46
Cc1nc(C)c(C(=O)N(C2CC2)[C@@H](C)c2cccc(C(F)(F)F)c2)s1,0%,0.01
CN(C(=O)[C@@H]1CCCCC(=O)N1)c1cnn(C)c1,-18%,2.07
CC(C)CCC(=O)N1CC[S@+]([O-])C(C)(C)C1,-8%,1.08
